Here are results for two substances from article PMC11009252.

Results are given in words; binding and its absence hold for the method and conditions named. In cells and extracts the contact can be indirect. Some results given as binding are weak or reduced against the parent protein; the word gives no strength. For some assays here: Tags and fused reporters may be left off the sequences shown.

Assay [1] addresses T1, PDZK1, endogenous in MDA-MB-231 cells (human (endogenous in MDA-MB-231)) (UniProt Q5T2W1).
T1 sequence: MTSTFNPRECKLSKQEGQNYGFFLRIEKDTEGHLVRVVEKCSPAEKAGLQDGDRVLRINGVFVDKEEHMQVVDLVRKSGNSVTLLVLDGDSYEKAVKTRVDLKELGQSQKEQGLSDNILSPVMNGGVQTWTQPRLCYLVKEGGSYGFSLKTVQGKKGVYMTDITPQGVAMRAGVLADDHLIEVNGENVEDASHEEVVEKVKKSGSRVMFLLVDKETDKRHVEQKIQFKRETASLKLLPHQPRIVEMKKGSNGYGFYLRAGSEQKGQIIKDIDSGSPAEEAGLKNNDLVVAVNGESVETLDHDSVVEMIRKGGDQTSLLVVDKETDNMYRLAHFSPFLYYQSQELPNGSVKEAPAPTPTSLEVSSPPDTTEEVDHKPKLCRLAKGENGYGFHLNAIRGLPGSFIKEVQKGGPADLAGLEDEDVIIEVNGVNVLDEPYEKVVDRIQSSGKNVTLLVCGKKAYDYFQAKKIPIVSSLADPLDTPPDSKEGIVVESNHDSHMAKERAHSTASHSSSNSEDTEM
Description: co-IP; endogenous proteins of MDA-MB-231 cells; anti-EGFR antibody (Fig. 1F) or anti-PDZK1 antibody (Fig. 1G) coupled to affinity gel; IgG as control.

The target in assay [2] is T2, GST-PDZK1 fusion protein (full length PDZK1) (UniProt Q5T2W1).
T2 sequence: T1 sequence
Put plainly: pull-down; purified GST or GST fusion proteins on beads incubated with 1 mL HEK293 cell lysate, 4 °C, 3 h; washes in 10 mM HEPES, 50 mM NaCl, 5 mM EDTA, 0.1% Tween 20; western blot; only the target purified.

“EGFR, endogenous in MDA-MB-231 cells (from UniProt P00533 25-1210) (receptor)”: in assay [1], the binding entry is given as “binds”. As to “Epidermal growth factor receptor (EGFR), in lysates of HEK293 cells (from UniProt P00533 25-1210)”, in assay [2], the binding entry is recorded as “binds”.
